Over roughly 81,000 sequences, “one-hybrid fitness for binding NBS DNA” has its median near -0.1; the highest 2% begin near 0.36. The list shows a part of the results.
B1: Caulobacter ParB omega fusion; a variant is named by its letters at X, in order, B8GW30 (parent)
chain: MESVVVGEPGMSEGRRGLGRGLSALLGEVDAAPAQAPGEQLGGSREAPIEILQRNPDQPRRTFREEDLEDLSNSIREKGVLQPILVRPSPDTAGEYQIVAGERAWRAAQRAGLKTVPIMVRELDDLAVLEIGIIENVQRADLNVLEEALSYKVLMEKFERTQENIAQTIGKSXSHVANXMRLLXLPDEVQSYLVSGELTAXHARAIAAAADPVALAKQIIEGGLSVRETEALARKAPNLSAGKSKGGRPPRVKDTDTQALESDLSSVLGLDVSIDHRGSTGTLTITYATLEQLDDLCNRLTRGI

Variants of: B1
Experiment: one-hybrid fitness for binding NBS DNA (the Noc-binding site; scaled: cognate 1, non-cognate 0); higher = stronger binding
Settings: with NBS DNA site
Summary of the method: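 Fitness is the rescaled log change in variant-to-wild-type read ratio, measured by Illumina sequencing of plasmids before and after bacterial one-hybrid selection. The scale puts cognate at 1 and non-cognate at 0. Selection of Caulobacter ParB libraries, four specificity codons randomised, took place in E. coli USO with a HIS3 reporter, site 19 bp from the promoter, over 48 hours at 37°C on M9-minus-histidine with 0.1 mM IPTG and 5 mM 3-AT.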

| Variant | one-hybrid fitness for binding NBS DNA |
| --- | --- |
| AIRW | ≤ 0.2 |
| HTWT | ≤ 0.2 |
| AAGR | ≤ 0.2 |
| EPAF | ≤ 0.2 |
| GVEF | ≤ 0.2 |
| RDHL | ≤ 0.2 |
| RFRS | 0.446 |
| PQNV | ≤ 0.2 |
| PAEL | ≤ 0.2 |
| HVVK | ≤ 0.2 |
| SFHL | ≤ 0.2 |
| MAWS | ≤ 0.2 |
| FYII | ≤ 0.2 |
| DACY | ≤ 0.2 |
| SRLR | ≤ 0.2 |
| PHCG | ≤ 0.2 |
| KYAL | ≤ 0.2 |
| DVHT | ≤ 0.2 |
| LQRI | ≤ 0.2 |
| PKRR | ≤ 0.2 |
| EMLT | ≤ 0.2 |

| Variant | one-hybrid fitness for binding NBS DNA |
| --- | --- |
| MRSM | ≤ 0.2 |
| VAYI | ≤ 0.2 |
| RTTE | ≤ 0.2 |
| GSHM | ≤ 0.2 |
| SMAF | ≤ 0.2 |
| LKHA | ≤ 0.2 |
| SDVF | ≤ 0.2 |
| RIRL | ≤ 0.2 |
| SKND | ≤ 0.2 |
| YYGG | ≤ 0.2 |
| MFHG | ≤ 0.2 |
| EYGS | ≤ 0.2 |
| QEYD | ≤ 0.2 |
| DAVD | ≤ 0.2 |
| MATS | ≤ 0.2 |
| YVIP | ≤ 0.2 |
| TYYG | ≤ 0.2 |
| PMAY | ≤ 0.2 |
| HSAR | ≤ 0.2 |
| TEGC | ≤ 0.2 |
| PPGP | ≤ 0.2 |

| Variant | one-hybrid fitness for binding NBS DNA |
| --- | --- |
| QMAF | ≤ 0.2 |
| TQGP | ≤ 0.2 |
| IMVQ | ≤ 0.2 |
| NKSG | ≤ 0.2 |
| KDSV | ≤ 0.2 |
| FVIG | ≤ 0.2 |
| ITTP | ≤ 0.2 |
| VWGG | ≤ 0.2 |
| EYRD | ≤ 0.2 |
| LETI | ≤ 0.2 |
| WTVS | ≤ 0.2 |
| ALYI | ≤ 0.2 |
| AERV | ≤ 0.2 |
| CPPM | ≤ 0.2 |
| GIIR | ≤ 0.2 |
| EHVG | ≤ 0.2 |
| TRHK | ≤ 0.2 |
| VFKQ | ≤ 0.2 |
| RKFA | ≤ 0.2 |
| WAAT | ≤ 0.2 |
| TVKS | ≤ 0.2 |

| Variant | one-hybrid fitness for binding NBS DNA |
| --- | --- |
| CANQ | ≤ 0.2 |
| YTHW | ≤ 0.2 |
| VPFH | ≤ 0.2 |
| SYKY | ≤ 0.2 |
| EPNS | ≤ 0.2 |
| DRLH | ≤ 0.2 |
| PGVL | ≤ 0.2 |
| NGNG | ≤ 0.2 |
| THDS | ≤ 0.2 |
| CYRH | ≤ 0.2 |
| DLAS | ≤ 0.2 |
| QINI | ≤ 0.2 |
| QVHL | ≤ 0.2 |
| TAGE | ≤ 0.2 |
| HLSR | ≤ 0.2 |
| GRSY | ≤ 0.2 |
| RDLL | ≤ 0.2 |
| QCRF | 0.423 |
| RRNC | 0.343 |
| YRPD | ≤ 0.2 |
| TFHV | ≤ 0.2 |
